Results filed as inconclusive are left out. Some entries of the source have several records that differ or are many. This list holds those alone. An entry can have further records. Values given together are repeats across runs, samples, wells, individuals or studies. Additions like (4×) say how often a value occurs here. Starred links: 1 amine or outer side, 2 acyl side, 3 side chain; linkers in the order of their positions; H or OH if unused. Positions of bridges follow the written chain, without caps; N, C: chain ends. Non-standard residues stand in square brackets, D forms with d. Residues, ends and D or L forms follow the SMILES beside them. Chains are numbered I, II in the order given. Actinocin(9to1) = Cc1c2oc3c(C)ccc(C(=O)[*:1])c3nc-2c(C(=O)[*:2])c(N)c1=O; aThr = C[C@H](O)[C@H](N)C(=O)O; NMeV = CN[C@H](C(=O)O)C(C)C; Sar = CNCC(=O)O
System: nude mice, HT29 intrarenal xenograft, tumor weight T/C
Test: NCI In Vivo Anticancer Drug Screen. Data for tumor model HT29;CX-1 Human Adenocarcinoma (MER+) (intrarenal inoculation) in NU/NU Swiss (nude) mice
Conditions: endpoint: mean tumor weight change, higher = larger tumour
Procedure: The antitumor activity of compounds was measured in mice bearing transplantable tumors. Survival or tumor size were measured and the results are expressed as the measurement made in the treated group (T) divided by the measurement made in the vehicle treated control group (C). The tumor model used in this assay is HT29;CX-1 Human Adenocarcinoma (MER+) (intrarenal inoculation) in NU/NU Swiss (nude) mice

[1] = dose: 0.5 mg/kg/injection, schedule: Q01DX010 (sc), vehicle: saline

**Q.** `CNNCc1ccc(C(=O)NC(C)C)cc1` was tested. Which T/C (dose: 100.0 mg/kg/injection, schedule: Q01DX010 (sc), vehicle: saline) did it give?
**A.** 25 % of control, 40 % of control, 89 % of control

**Q.** And the T/C (dose: 400.0 mg/kg/injection, schedule: Q01DX010 (sc), vehicle: saline)?
**A.** 8 % of control, 41 % of control, 93 % of control

**Q.** Which results are given for `COc1cc2cc(c1Cl)N(C)C(=O)CC(OC(=O)CC(C)C)C1(C)OC1C(C)C1CC(O)(NC(=O)O1)C(OC)/C=C/C=C(C)C2` (configuration not stated)?
**A.** T/C (dose: 62.5 micrograms/kg/injection, schedule: Q04DX004 (sc), vehicle: saline + alcohol): 58 % of control, 90 % of control, 103 % of control; T/C (dose: 250.0 micrograms/kg/injection, schedule: Q04DX004 (sc), vehicle: saline + alcohol): 14 % of control and 117 % of control (2×)

**Q.** How did the T/C (dose: 8.0 mg/kg/injection, schedule: Q01DX010 (sc), vehicle: saline) turn out when `CC1=C(C)C(=O)O[C@@H]([C@](C)(O)[C@]2(O)CC[C@@]3(O)[C@@H]4C[C@H]5O[C@]56[C@@H](O)C=CC(=O)[C@]6(C)[C@H]4CC[C@]23C)C1` was run?
**A.** 122 % of control and 166 % of control

**Q.** What about the T/C (dose: 16.0 mg/kg/injection, schedule: Q01DX010 (sc), vehicle: saline) of the same compound?
**A.** 28 % of control, 50 % of control, 110 % of control

**Q.** And the T/C (dose: 32.0 mg/kg/injection, schedule: Q01DX010 (sc), vehicle: saline)?
**A.** -29 % of control, 81 % of control, 86 % of control

**Q.** `CN(C(=S)S(=O)(=O)C12CC3CC(CC(C3)C1)C2)c1ccccc1` was tested. Which T/C (dose: 50.0 mg/kg/injection, schedule: Q04DX004 (sc), vehicle: Klucel (hydroxypropylcellulose) (HPC)) did it give?
**A.** 16 % of control and 46 % of control

**Q.** And the T/C (dose: 100.0 mg/kg/injection, schedule: Q04DX004 (sc), vehicle: Klucel (hydroxypropylcellulose) (HPC))?
**A.** 109 % of control and 176 % of control

**Q.** How did the T/C (dose: 200.0 mg/kg/injection, schedule: Q01DX010 (sc), vehicle: Klucel (hydroxypropylcellulose) (HPC)) turn out when `CN(C)/N=N/c1nc[nH]c1C(N)=O` was run?
**A.** 47 % of control and 100 % of control

**Q.** For `CC(C)NC(=O)OCc1c(COC(=O)NC(C)C)c(-c2ccc(Cl)c(Cl)c2)n2c1CCC2`, which T/C (dose: 400.0 mg/kg/injection, schedule: Q01DX010 (sc), vehicle: distilled water + Tween-80) is on record?
**A.** 18 % of control and 65 % of control

**Q.** With `COc1cccc2c1C(=O)c1c(O)c3c(c(O)c1C2=O)C[C@@](O)(C(=O)CO)C[C@@H]3OC1CC(N)C(O)C(C)O1` (some centres not stated) as the compound, how does the T/C (dose: 0.5 mg/kg/injection, schedule: Q01DX010 (ip), vehicle: water) read?
**A.** -14 % of control and 102 % of control

**Q.** And the T/C (dose: 0.5 mg/kg/injection, schedule: Q01DX010 (sc), vehicle: water)?
**A.** 19 % of control, 25 % of control, 94 % of control

**Q.** What about the T/C (dose: 1.0 mg/kg/injection, schedule: Q01DX010 (ip), vehicle: water) of the same compound?
**A.** -31 % of control and 91 % of control

**Q.** Which results are given for `[N-]=[N+]=CC(=O)CCC(=O)C=[N+]=[N-]`?
**A.** T/C (dose: 9.0 mg/kg/injection, schedule: Q04DX004 (sc), vehicle: DMSO): 109 % of control and 164 % of control; T/C (dose: 18.0 mg/kg/injection, schedule: Q04DX004 (sc), vehicle: DMSO): 79 % of control and 116 % of control

**Q.** `COc1ccc(C(N)=O)cc1N=NN(C)C` was tested. Which T/C (dose: 150.0 mg/kg/injection, schedule: Q04DX004 (sc), vehicle: Klucel (hydroxypropylcellulose) (HPC)) did it give?
**A.** 18 % of control, 40 % of control, 68 % of control

**Q.** For `C=C1CC2(OC1=O)C(=O)N(C)c1ccc(I)cc12` (configuration not stated), which T/C (dose: 300.0 mg/kg/injection, schedule: Q04DX004 (sc), vehicle: suspension in saline) is on record?
**A.** 77 % of control and 112 % of control

**Q.** Which results are given for `O=C(O)C1Cc2nc[nH]c2CN1CO` (configuration not stated)?
**A.** T/C (dose: 200.0 mg/kg/injection, schedule: Q04DX004 (sc), vehicle: saline with Tween-80): 48 % of control and 247 % of control; T/C (dose: 400.0 mg/kg/injection, schedule: Q04DX004 (sc), vehicle: saline with Tween-80): 34 % of control and 156 % of control

**Q.** How did the T/C [1] turn out when `N#Cc1cn(C2OC(CO)C(O)C2O)c2ncnc(N)c12` (configuration not stated) was run?
**A.** 43 % of control and 104 % of control

**Q.** With `Cc1c2oc3c(C)ccc(C(=O)N[C@@H]4C(=O)N[C@H](C(C)C)C(=O)N5CCC[C@H]5C(=O)N(C)CC(=O)N(C)[C@@H](C(C)C)C(=O)O[C@H]4C)c3nc-2c(C(=O)N[C@@H]2C(=O)N[C@H](C(C)C)C(=O)N3CCC[C@H]3C(=O)N(C)CC(=O)N(C)[C@@H](C(C)C)C(=O)O[C@H]2C)c(N)c1=O` (I: [aThr][dV]P[Sar][NMeV] / II: [aThr][dV]P[Sar][NMeV]; ester I:1-I:C, II:1-II:C; linker I:N-II:N via Actinocin(9to1)) as the compound, how does the T/C (dose: 50.0 micrograms/kg/injection, schedule: Q01DX010 (sc), vehicle: saline) read?
**A.** 58 % of control and 121 % of control

**Q.** What about the T/C (dose: 100.0 micrograms/kg/injection, schedule: Q01DX010 (sc), vehicle: saline) of the same compound?
**A.** 19 % of control and 49 % of control

**Q.** And the T/C (dose: 200.0 micrograms/kg/injection, schedule: Q01DX010 (sc), vehicle: saline)?
**A.** -21 % of control and 10 % of control

**Q.** Which results are given for `CN=C(N)N/N=C(\c1ccccc1)c1ccc(Br)cc1`?
**A.** T/C (dose: 12.5 mg/kg/injection, schedule: Q04DX004 (sc), vehicle: saline with Tween-80): -70 % of control, 78 % of control, 113 % of control; T/C (dose: 25.0 mg/kg/injection, schedule: Q04DX004 (sc), vehicle: saline with Tween-80): -8 % of control, 37 % of control, 107 % of control

**Q.** For `CN(C)c1nc(N(C)C)nc(N(C)C)n1`, which T/C (dose: 60.0 mg/kg/injection, schedule: Q01DX010 (sc), vehicle: saline with Tween-80) is on record?
**A.** -10 % of control, 78 % of control, 94 % of control

**Q.** What about the T/C (dose: 120.0 mg/kg/injection, schedule: Q01DX010 (sc), vehicle: saline with Tween-80) of the same compound?
**A.** 24 % of control, 31 % of control, 91 % of control

**Q.** What does the source list for `CN(CO)c1nc(N(C)CO)nc(N(C)CO)n1`?
**A.** T/C (dose: 50.0 mg/kg/injection, schedule: Q01DX010 (sc), vehicle: saline): 41 % of control and 75 % of control; T/C (dose: 50.0 mg/kg/injection, schedule: Q01DX010 (sc), vehicle: suspension in saline): 9 % of control and 80 % of control; T/C (dose: 100.0 mg/kg/injection, schedule: Q01DX010 (sc), vehicle: suspension in saline): 2 % of control and 28 % of control

**Q.** With `C/C=C(\C)c1cc(=O)c2c(C)cc3c(c2o1)C(=O)c1c(O)c(C2CC(C)(N(C)C)C(OC(C)=O)C(C)O2)cc(C2CC(N(C)C)C(O)C(C)O2)c1C3=O` (configuration not stated) as the compound, how does the T/C (dose: 10.0 mg/kg/injection, schedule: Q04DX004 (sc), vehicle: saline) read?
**A.** 39 % of control and 100 % of control

**Q.** `CC1(C)N=C(N)N=C(N)N1c1ccc(CCCCc2ccc(S(=O)(=O)F)cc2Cl)c(Cl)c1` was tested. Which T/C (dose: 25.0 mg/kg/injection, schedule: Q01DX010 (sc), vehicle: saline) did it give?
**A.** 30 % of control and 117 % of control

**Q.** For `CO[C@H](C(=O)[C@@H](O)[C@@H](C)O)[C@@H]1Cc2cc3cc(OC4CC(OC5CC(O)C(O)C(C)O5)C(O)C(C)O4)c(C)c(O)c3c(O)c2C(=O)[C@H]1OC1CC(OC2CC(OC3CC(C)(O)C(O)C(C)O3)C(O)C(C)O2)C(O)C(C)O1` (some centres not stated), which T/C (dose: 0.25 mg/kg/injection, schedule: Q01DX010 (sc), vehicle: saline) is on record?
**A.** 63 % of control, 82 % of control, 111 % of control

**Q.** What about the T/C [1] of the same compound?
**A.** 13 % of control, 55 % of control, 68 % of control

**Q.** What about the T/C (dose: 0.75 mg/kg/injection, schedule: Q04DX004 (sc), vehicle: saline) of the same compound?
**A.** 85 % of control and 122 % of control

**Q.** And the T/C (dose: 1.0 mg/kg/injection, schedule: Q01DX010 (sc), vehicle: saline)?
**A.** -15 % of control, 37 % of control, 87 % of control

**Q.** What about the T/C (dose: 1.5 mg/kg/injection, schedule: Q04DX004 (sc), vehicle: saline) of the same compound?
**A.** 39 % of control and 66 % of control

**Q.** And the T/C (dose: 3.0 mg/kg/injection, schedule: Q04DX004 (sc), vehicle: saline)?
**A.** 8 % of control and 58 % of control

**Q.** How did the T/C (dose: 3.0 mg/kg/injection, schedule: Q01DX010 (sc), vehicle: lactic acid) turn out when `COc1cc(NS(C)(=O)=O)ccc1Nc1c2ccccc2nc2ccccc12` was run?
**A.** 35 % of control and 90 % of control

**Q.** `O=C1C2CC=CCC2C(=O)N1SC(Cl)(Cl)Cl` (configuration not stated) was tested. Which T/C (dose: 75.0 mg/kg/injection, schedule: Q04DX004 (sc), vehicle: saline with Tween-80) did it give?
**A.** 66 % of control and 120 % of control

**Q.** What about the T/C (dose: 150.0 mg/kg/injection, schedule: Q04DX004 (sc), vehicle: saline with Tween-80) of the same compound?
**A.** 66 % of control and 119 % of control

**Q.** With `CCN(CC)CCNc1ccc(C)c2sc3ccc(O)cc3c(=O)c12` as the compound, how does the T/C (dose: 300.0 mg/kg/injection, schedule: Q04DX004 (sc), vehicle: saline with Tween-80) read?
**A.** 70 % of control and 110 % of control

**Q.** For `O=C1C(=O)c2ccccc2C(O)=C1CC=C(Cl)Cl`, which T/C (dose: 200.0 mg/kg/injection, schedule: Q01DX010 (sc), vehicle: water) is on record?
**A.** 53 % of control and 102 % of control

**Q.** With `CSC1SCC2C(=O)N(C)C(C(C)C)C(=O)OCC(NC(=O)c3cnc4ccccc4n3)C(=O)NC(C)C(=O)N(C)C1C(=O)N(C)C(C(C)C)C(=O)OCC(NC(=O)c1cnc3ccccc3n1)C(=O)NC(C)C(=O)N2C` (configuration not stated) as the compound, how does the T/C (dose: 60.0 micrograms/kg/injection, schedule: Q01DX010 (sc), vehicle: suspension in saline) read?
**A.** 52 % of control and 101 % of control

**Q.** What about the T/C (dose: 120.0 micrograms/kg/injection, schedule: Q01DX010 (sc), vehicle: suspension in saline) of the same compound?
**A.** 54 % of control and 112 % of control

**Q.** What about the T/C (dose: 240.0 micrograms/kg/injection, schedule: Q01DX010 (sc), vehicle: suspension in saline) of the same compound?
**A.** 39 % of control and 67 % of control

From PubChem BioAssay AID206 (DTP/NCI, 2004)
